# Results taken from PubChem BioAssay AID588579 (National Center for Advancing Translational Sciences (NCATS), 2011).
# Values joined by “and” are separate entries in the source; they are usually repeats but may differ in a detail not shown here. Identical values can stand only once. About 2,200 (0.55%) of roughly 400,000 compounds were called active. Inconclusive means that the source gave no clear call. Such entries were picked first, then a sample of the others. The call rests on the fitted dose curve; in most records, active means well fitted inhibition curve with a large enough effect; inconclusive means small, poorly fitted or top-dose-only effect, or another doubt; inactive means no such curve, though single readings can be large or run the other way. A potency beside an inconclusive call is a rough fit, not a confirmed value.
# Molecular target: DNA polymerase kappa (Homo sapiens) (UniProt Q9UBT6)
# Assay: qHTS for Inhibitors of Polymerase Kappa
# Conditions: purified Pol kappa, fluorescent DNA synthesis assay, 10 min; series mostly up to 107 µM; activity, negative = inhibition: at the top concentration
# Procedure: The processing and repair of DNA interstrand crosslinks (ICL) in eukaryotic cells are extremely complex, potentially involving multiple DNA repair and damage tolerance pathways, including homologous recombination, nucleotide excision repair, translesion synthesis (TLS), and cell cycle checkpoints.
# To that end, in a collaboration between the Oregon Health & Science University and the NIH Chemical Genomics Center a 1536-well high-throughput screen was developed. This fluorescent screen was assayed against the NIH Molecular Libraries Small Molecule Repository (MLSMR) to discover inhibitors of Pol Kappa.
# NIH Chemical Genomics Center [NCGC]
# NIH Molecular Libraries Probe Centers Network [MLPCN]
# Assay Submitter (PI): Stephen Lloyd, Oregon Health & Science University
# Three microliters of reagents (buffer in column 3 and 4 as negative control and 10 nM Pol kappa in columns 1, 2, and 5-48) were dispensed into a 1536-well black solid-bottom plate. Compounds (23 nL) were transferred via Kalypsys pin tool equipped with 1536-pin array. The plates were then incubated for 15 min at room temperature, and 1 uL substrate (50 nM final concentration) were then added to start the reaction and kinetically read twice at 0 min and 10 min on the Viewlux reader
# On the % scale 0 is the no-effect control and ±100 the full control effect; potency means the concentration at half of the fitted maximal effect; tags describe the fitted curve by direction and shape.
# Sequence of UniProt Q9UBT6 (Q9UBT6 whole entry, looked up): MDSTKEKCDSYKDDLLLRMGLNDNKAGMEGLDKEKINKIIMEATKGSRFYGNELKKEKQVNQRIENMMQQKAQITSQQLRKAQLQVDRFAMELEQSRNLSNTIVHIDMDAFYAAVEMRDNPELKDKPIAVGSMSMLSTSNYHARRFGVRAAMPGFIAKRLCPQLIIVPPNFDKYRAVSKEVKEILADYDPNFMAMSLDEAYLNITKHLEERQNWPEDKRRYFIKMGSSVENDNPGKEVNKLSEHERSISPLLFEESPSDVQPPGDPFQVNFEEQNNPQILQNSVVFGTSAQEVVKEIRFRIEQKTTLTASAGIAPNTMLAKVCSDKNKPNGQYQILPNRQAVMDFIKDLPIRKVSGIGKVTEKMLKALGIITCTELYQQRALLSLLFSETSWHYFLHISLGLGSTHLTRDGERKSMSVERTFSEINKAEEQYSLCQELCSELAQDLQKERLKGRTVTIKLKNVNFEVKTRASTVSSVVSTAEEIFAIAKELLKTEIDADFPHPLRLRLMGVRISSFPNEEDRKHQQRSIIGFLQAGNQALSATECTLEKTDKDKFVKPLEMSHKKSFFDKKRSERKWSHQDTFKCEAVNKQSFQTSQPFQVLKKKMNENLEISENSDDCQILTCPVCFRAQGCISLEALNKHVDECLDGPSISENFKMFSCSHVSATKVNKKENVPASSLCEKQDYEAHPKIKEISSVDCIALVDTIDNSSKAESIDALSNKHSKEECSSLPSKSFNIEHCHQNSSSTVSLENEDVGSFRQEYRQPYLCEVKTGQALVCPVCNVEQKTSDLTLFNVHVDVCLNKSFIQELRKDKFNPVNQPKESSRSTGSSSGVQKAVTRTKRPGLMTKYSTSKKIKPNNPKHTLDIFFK
SMILES,Potency,"activity, negative = inhibition"
NCCCCNCCCN,"inconclusive: 31.6 µM [inhibitor, single point]",
COc1ccc(N2CC(C(=O)Nc3ccc(S(=O)(=O)Nc4nccs4)cc3)CC2=O)c(OC)c1 (stereo not drawn),"inconclusive: 89.1 µM [inhibitor, partial curve, poor fit]",
COc1ccc(NC(=O)CSc2nnc(NC(=O)NC3CCCCC3)s2)cc1OC,,inactive: -1.39% [at 60.1 µM]
O=C1C(c2[nH]c3ccc(S(=O)(=O)O)cc3c2O)=Nc2ccc(S(=O)(=O)O)cc21,"inconclusive: 56.2 µM [inhibitor, partial curve, poor fit] and inconclusive: 44.7 µM [inhibitor, partial curve, poor fit]",
O=[N+]([O-])c1ccc(N=Nc2ccc(O)cc2O)cc1,,inactive: -4.96%
Cc1ccc(C2=NC(=O)/C(=C/c3cc(O)c(O)c(Br)c3)S2)cc1,active: 1.78 µM,
CCc1ccc(/C(C)=N/NC(=O)CNC(=O)/C=C/c2ccccc2OC)cc1,,inactive: -0.382%
Nc1ccc(-c2nc3ccc(N)cc3[nH]2)cc1,active: 79.4 µM,
O=C1/C(=C/c2ccc(O)c(O)c2)Oc2ccccc21,active: 13.4 µM,
N=C1/C(=C\c2coc3ccccc3c2=O)C(=O)N=C2SC=CN12,"inconclusive: 79.4 µM [inhibitor, partial curve, poor fit]",
O=C(COc1ccc(Br)cc1)NC(=S)Nc1ccccc1N1CCOCC1,,inactive: -7.57%
COc1ccc(S(=O)(=O)N2CCCCC2)cc1NC(=O)C1CCCC1,"inconclusive: 89.1 µM [inhibitor, single point]",
CCN(CC)Cc1cc(Nc2c3ccccc3nc3c4ccccc4n(C)c23)cc(CN(CC)CC)c1O,"inconclusive: 89.1 µM [inhibitor, partial curve, poor fit]",
O=C(CSc1nnc(CNC(=O)c2c(F)cccc2F)o1)NCc1ccccc1,"inconclusive: 89.1 µM [inhibitor, partial curve, poor fit]",
C=CCn1c(SCC(=O)c2ccc(CNC(C)=O)o2)nc2ccccc2c1=O,"inconclusive: 79.4 µM [inhibitor, partial curve, poor fit]",
CCN(CC)C(=O)c1sc2c(c1C)c(=O)n(CCc1ccccc1)c(=O)n2Cc1ccc(F)cc1Cl,,inactive: -0.95% [at 60.1 µM]
O=c1c(-c2ccc(O)cc2O)coc2cc(O)cc(O)c12,"inconclusive: 89.1 µM [inhibitor, single point]",
O=C(c1ccccc1)c1ccc2nc(-c3ccco3)c(-c3ccco3)nc2c1,active: 25.1 µM,
O=C(/C=C/c1ccco1)NC(=S)Nc1cccc([N+](=O)[O-])c1,"inconclusive: 100 µM [inhibitor, single point]",
CN(c1ccccc1C(=O)NCc1ccco1)S(C)(=O)=O,"inconclusive: 89.1 µM [inhibitor, single point]",
CC(C)[C@H]1COCCS(=O)(=O)N1Cc1cccc([N+](=O)[O-])c1,"inconclusive: 89.1 µM [inhibitor, single point]",
Cc1nn(-c2ccccc2)c2nc(-c3ccncc3)cc(C(=O)NCc3ccco3)c12,"inconclusive: 89.1 µM [inhibitor, single point]",

SMILES,Potency,"activity, negative = inhibition"
CC(=O)NS(=O)(=O)c1ccc(NC(=O)c2cc3c(=O)n4ccccc4nc3s2)cc1,"inconclusive: 56.2 µM [inhibitor, partial curve, poor fit]",
CC1CCN(S(=O)(=O)c2ccc(NC(=O)Cn3nnc(-c4ccccc4F)n3)cc2)CC1,"inconclusive: 100 µM [inhibitor, single point]",
CCCN(C(=O)COC(=O)c1cc(CC)c(C)s1)c1c(N)n(Cc2ccccc2)c(=O)[nH]c1=O,"inconclusive: 100 µM [inhibitor, single point]",
Cc1ccc(C)n1NC(=O)c1ccccc1O,"inconclusive: 79.4 µM [inhibitor, single point]",
CCOC(=O)C1CCCN(C(=O)c2ccc3c(c2)N(Cc2ccccc2F)C(=O)c2ccccc2S3=O)C1 (stereo not drawn),,inactive: -20.2%
N#CN1CCC(NS(=O)(=O)c2ccc(C(F)(F)F)cc2)C1 (stereo not drawn),,inactive: -19.8%
COc1ccc(C)cc1NC(=O)COC(=O)c1ccc2ccccc2n1,"inconclusive: 89.1 µM [inhibitor, partial curve, poor fit]",
Cc1c(C(=O)Nc2nc(-c3ccccn3)cs2)oc2ccccc12,"inconclusive: 70.8 µM [inhibitor, partial curve, poor fit]",
CC1CC1C(=O)OCC(=O)NCc1ccc(Cl)cc1Cl (stereo not drawn),,inactive: -5.76%
CCCc1cc(=O)oc2cc(OCc3ccc(C(=O)O)o3)ccc12,,inactive: -16.5%
CCN(C(=O)c1cn(C)c(=O)c2ccccc12)c1cccc(C)c1,"inconclusive: 89.1 µM [inhibitor, single point]",
Cc1cccc(NS(=O)(=O)c2ccc3c(c2)CCN3C(=O)C2CC2)c1C,,inactive: -22.8%
Cc1c(CC(=O)N2CCN(C(=O)C3COc4ccccc4O3)CC2)c(=O)oc2c(O)c(O)ccc12 (stereo not drawn),active: 7.08 µM,
CC(C)(O)CCCC(C)(O)c1ccc(C(=O)O)cc1O (stereo not drawn),"inconclusive: 56.2 µM [inhibitor, partial curve, poor fit]",
Cn1cnnc1SCC(=O)Nc1sc2c(c1C(N)=O)CCC2,"inconclusive: 31.6 µM [inhibitor, full curve, poor fit]",
CN(Cc1ccco1)S(=O)(=O)c1nnc(NC(=O)c2ccccc2)s1,"inconclusive: 89.1 µM [inhibitor, partial curve, poor fit]",
O=C1NN(c2ccccc2)C(=O)/C1=C/c1coc2ccccc2c1=O,"inconclusive: 89.1 µM [inhibitor, single point]",
O=C1CSC(=S)N1c1ccc(F)c(Cl)c1,,inactive: -13.6%
Cn1nnnc1SCC1=C(C(=O)O)N2C(=O)C(NC(=O)C(OC=O)c3ccccc3)C2SC1 (stereo not drawn),active: 22.4 µM,
O=C(N/N=C/c1ccc([N+](=O)[O-])o1)c1cc2ccccc2o1,"inconclusive: 89.1 µM [inhibitor, partial curve, poor fit]",
O=C1NC(=S)S/C1=C\c1ccc(SCc2ccccc2)o1,active: 25.1 µM,
